# Reference: PubChem BioAssay (NCATS)
# This list was built around the results that the source calls inconclusive (neither active nor inactive); the mix of calls is not that of the screen. No potency is given beside an inconclusive call; the fits are too rough. Calls of active or inactive are those of the source. The call rests on the fitted dose curve; in most records, active means well fitted curve in the direction sought with a large enough effect; inconclusive means small, poorly fitted or top-dose-only effect, or another doubt; inactive means no such curve, though single readings can be large or run the other way.
# Biological target: Thioredoxin reductase 1, cytoplasmic (Rattus norvegicus) (UniProt O89049)
# Test: qHTS Assay for Substrates of Mammalian Selenoprotein Thioredoxin Reductase 1 (TrxR1) (AID 488772);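 further: a drop in NADPH fluorescence below the no-compound background marks a TrxR1 substrate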; on activity change, negative = NADPH consumption: 0% is about no effect
# Details: purified TrxR1, NADPH consumption substrate assay; series mostly up to 57.1 µM; activity change, negative = NADPH consumption: at the top concentration
# Source text: The selenoprotein thioredoxin reductase (TrxR; EC 1.8.1.9) is a FAD containing homodimeric pyridine nucleotide-disulfide oxidoreductase with many cellular roles. Together with NADPH and its prime substrate thioredoxin (Trx), the enzyme forms the core of the Trx system. The mammalian Trx system exerts a wide spectrum of functions including redox regulation, antioxidant defense, regulation of transcription factors as well as support of cell growth and replication. Many of these functions involve the reduction of Trx, which may subsequently reduce a number of different substrates including ribonucleotide reductase, peroxiredoxins or NFkB. Mammalian TrxR itself also has a broad substrate specificity, reducing both protein and non-protein substrates, including low molecular weight compounds such as dehydroascorbate, lipoic acid, ubiquinone, and juglone. In addition, several drugs in clinical use for anticancer treatment are indeed known to target TrxR1.
# This BioAssay is a validation of an NADPH fluorescence-based, dual-purpose qHTS rTrxR1 assay designed to find potential inhibitors and substrates of rTrxR1. For this particular BioAssay, actives are potential substrates. See related BioAssay for inhibitors data deposition.
# Assay protocol: 2 uL of reagents (buffer in column 4 as negative control and 90 nM rTrxR1 in columns 1-3 and 5-48) were dispensed into Greiner black solid-bottom 1,536-well assay plates, followed by 1 uL of NADPH (400 uM final concentration) to each well. The plates were centrifuged at 1000 rpm for 15 seconds and subsequently incubated for 5 min at room temperature (~22 deg C) to allow for rTrxR1 reduction. Compounds (23 nL) were then transferred via Kalypsys pin tool equipped with 1536-pin array (10 nL slotted pins, V&P Scientific, San Diego, CA). In addition, a duplicate 2-fold serial dilution of the control compounds auranofin, a known gold-based TrxR1 inhibitor, and juglone (5-hydroxy-1,4-naphthoquinone), a natural TrxR1 substrate, were pin-transferred to columns 2 and 3, respectively. After incubation for 15 min at room temperature (~22 deg C), 1 uL of selenite (400 uM final concentration) were dispensed to each well. The plate was immediately transferred to a ViewLux high-throughput CCD imager (PerkinElmer), wherein kinetic measurements of NADPH fluorescence (Ex 340 nm, Em 450 nm) were acquired (8 minute kinetic read, see Table 1). Read 1 was utilized to assess the capacity of a compound to serve as an rTrxR1 substrate, i.e. a decrease in NADPH fluorescence compared to the no-compound background is an indication of a substrate behavior for that particular compound. For inhibitory activity of a compound, delta values, computed as the difference in fluorescence intensity between the first and last reads of an 8-minute time kinetic window, were used. All reagents were diluted in an assay buffer consisting of 50 mM Tris-HCl, pH 7.5, 2 mM EDTA, and 0.01% Tween-20.
# Throughout the screen, reagent bottle and all liquid lines were made light-tight to minimize reagent degradation. All screening operations were performed on a fully integrated robotic system (Kalypsys, San Diego, CA) containing one RX-130 and two RX-90 anthropomorphic robotic arms (Staubli, Duncan, SC). Library plates were screened starting from the lowest and proceeding to the highest concentration, and a 'double-pinning' step of the highest concentration was required to access higher concentrations of compounds. Vehicle-only plates, with DMSO being pin-transferred to the columns 5-48, were inserted uniformly at the beginning and the end of each library in order to monitor and record any shifts in the background, which can be affected by reagent dispensers or loss in enzyme activity over time. Screening data were corrected, normalized, and concentration-effect relationships were derived by using publicly-available curve fitting algorithms developed in-house (http://ncgc.nih.gov/pub/openhts).
# Potency means the concentration at half of the fitted maximal effect; tags describe the fitted curve by direction and shape.
# Chain of UniProt O89049 (O89049 whole entry, looked up): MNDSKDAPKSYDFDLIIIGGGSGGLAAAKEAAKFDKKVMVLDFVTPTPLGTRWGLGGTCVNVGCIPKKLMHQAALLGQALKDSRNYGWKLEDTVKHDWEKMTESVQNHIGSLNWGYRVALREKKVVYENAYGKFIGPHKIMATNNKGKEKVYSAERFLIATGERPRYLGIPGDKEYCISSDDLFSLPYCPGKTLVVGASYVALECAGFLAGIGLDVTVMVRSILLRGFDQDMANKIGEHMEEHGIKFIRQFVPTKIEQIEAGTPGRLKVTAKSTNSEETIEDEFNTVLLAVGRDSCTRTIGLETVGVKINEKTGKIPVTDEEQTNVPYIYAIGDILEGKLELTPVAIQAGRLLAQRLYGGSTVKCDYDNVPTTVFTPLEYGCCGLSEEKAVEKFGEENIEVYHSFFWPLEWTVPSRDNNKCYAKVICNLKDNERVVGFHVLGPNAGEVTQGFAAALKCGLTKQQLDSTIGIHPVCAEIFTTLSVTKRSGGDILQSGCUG
Compound,Potency,"activity change, negative = NADPH consumption"
N#C/C(=C\c1ccc(O)c(O)c1)C(=O)NCCCNC(=O)/C(C#N)=C/c1ccc(O)c(O)c1,"inconclusive [inhibitor, partial curve, poor fit]",
CN1C2CCC1CC(OC(=O)c1cc(Cl)cc(Cl)c1)C2 (stereo not drawn),"inconclusive [inhibitor, partial curve, poor fit]",
C[N+](C)(C)CCOC(=O)CBr,"inconclusive [inhibitor, partial curve, poor fit]",
CN1C[C@H](C(=O)N[C@]2(C)O[C@@]3(O)[C@@H]4CCCN4C(=O)[C@H](Cc4ccccc4)N3C2=O)C[C@@H]2c3cccc4[nH]cc(c34)C[C@H]21,"inconclusive [inhibitor, full curve, poor fit]",
C[C@]12C=CC(=O)C=C1CC[C@@H]1C2=CC[C@]2(C)[C@@H](C(=O)CN3CCN(c4cc(N5CCCC5)nc(N5CCCC5)n4)CC3)CC[C@@H]12,"inconclusive [inhibitor, partial curve]",
CCOC(=O)c1ncn2c1CN(C)C(=O)c1cc(F)ccc1-2,"inconclusive [inhibitor, full curve, poor fit]",
CCCN1CCC[C@@H](c2cccc(O)c2)C1,"inconclusive [inhibitor, partial curve, poor fit]",
O=[N+]([O-])c1cc(O)c(O)c([N+](=O)[O-])c1,,inactive: -1.58%
C=CCN1CC[C@]23CCCCC2[C@H]1Cc1ccc(O)cc13 (stereo partly drawn),,inactive: -4.71%
Brc1c(NC2=NCCN2)ccc2nccnc12,"inconclusive [inhibitor, full curve, poor fit]",
CN1CCN(C2=Nc3cc(Cl)ccc3Nc3ccccc32)CC1,"inconclusive [inhibitor, partial curve, poor fit]",
CCCN(CCC)C1CCc2ccc(O)cc2C1 (stereo not drawn),"inconclusive [inhibitor, partial curve]",
C[N+]1(C)CCOC(O)(c2ccc(-c3ccc(C4(O)C[N+](C)(C)CCO4)cc3)cc2)C1 (stereo not drawn),,inactive: -2.23%
CN1C2CC(OC(=O)[C@H](CO)c3ccccc3)CC1C1OC12 (stereo partly drawn),"inconclusive [inhibitor, full curve, poor fit]",
O=[N+]([O-])/C=C/c1ccc2c(c1)OCO2,"inconclusive [inhibitor, full curve, poor fit]",
C[C@]12CC[C@@H]3c4ccc(O)cc4C[C@@H](CCCCCCCCCS(=O)CCCC(F)(F)C(F)(F)F)[C@H]3[C@@H]1CC[C@@H]2O (stereo partly drawn),"inconclusive [inhibitor, partial curve, poor fit]",
CCCCCCC(C)(C)c1ccc([C@@H]2C[C@H](O)CC[C@H]2CCCO)c(O)c1,"inconclusive [inhibitor, partial curve]",
CC(C)(C)c1cc(C=C(C#N)C#N)cc(C(C)(C)C)c1O,"inconclusive [inhibitor, single point]",
